Sequences and labels used below:
B1: TEV protease; numbered along this chain (parent)
chain: MGESLFKGPRDYNPISSSICHLTNESDGHTTSLYGIGFGPFIITNKHLFRRNNGTLVVQSLHGVFKVKDTTTLQQHLVDGRDMIIIRMPKDFPPFPQKLKFREPQREERICLVTTNFQTKSMSSMVSDTSCTFPSGDGIFWKHWIQTKDGQCGSPLVSTRDGFIVGIHSASNFTNTNNYFTSVPKNFMELLTNQEAQQWVSGWRLNADSVLWGGHKVFMVKPEEPFQPVKEATQL

Some of the results follow. Sequences were assembled here from the parent chain. Inactive controls read about 0.05.

This assay covers variants of B1. Briefly: raw area under fraction-flipped curve 0-4 h after induction (AUC4h, not background-subtracted), DNA-recorder readout of cleavage of the substrate (dimensionless); higher = more cleavage of the substrate by the protease variant. The following applies: temperature: 34 °C; time window: 0-4 h after rhamnose induction. The protocol:
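In vivo DNA recorder in E. coli TOP10(DE3) ΔrhaA at 34 °C. Each TEVp single-site mutant (parent TEVp 0) is paired with a single-site variant of the 7-mer TEVs (canonical ENLYFQ|S). The substrate sits between flexible linkers in a Bxb1-sfGFP-TEVs-SsrA fusion, so cleavage stabilises Bxb1 and speeds flipping of a recombination array, read by NGS. The value is the raw area under the fraction-flipped curve over 0-4 h after rhamnose induction (AUC4h), with ≥20 reads per time point. It is not background-subtracted; inactive controls average about 0.047.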
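Also: Bxb1 expression induced with 0.2% (w/v) L-rhamnose at OD600 near 0.5, cultures sampled hourly, flipped fraction per protease–substrate barcode pair counted by paired-end Illumina sequencing.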

Take MGESLFKGPRDYNPISSSICHLTNESDGHTTSLYGIGFGPFIITNKHLFRRNNGTLVVQSLHGVFKVKDTTTLQQHLVDGRDMIIIRMPKDFPPFPQKLKFREPQREERICLVTTNFQTKSMSSMVSDTSCTFPSGDGIFWKHWIQTKDGQCGSPLVSTRDGFIVVIHSASNFTNTNNYFTSVPKNFMELLTNQEAQQWVSGWRLNADSVLWGGHKVFMVKPEEPFQPVKEATQL [G166V]: the “area with substrate EALYFQS” value is 0.0458, the “area with substrate ECLYFQS” value was 0.0293, the “area with substrate EELYFQS” value is 0.0616 and the “area with substrate EPLYFQS” value was 0.0544. Besides, the “area with substrate EQLYFQS” value amounted to 0.0543, the “area with substrate ERLYFQS” value amounted to 0.0511, the “area with substrate ESLYFQS” value amounted to 0.0528 and the “area with substrate EVLYFQS” value stood at 0.0645. Moreover, the “area with substrate EYLYFQS” value amounted to 0.0467.

Take MGESLFKGPRDYNPISSSICHLTNESDGHTTSLYGIGFGPFIITNKHLFRRNNGTLVVQSLHGVFKVKDTTTLQQHLVDGRDMIIIRMPKDFPPFPQKLKFREPQREERICLVTTNFQTKSMSSMVSDTSCTFPSGDGIFWKHWIQTKDGQCGSPLVSTRDGFIVGIHFASNFTNTNNYFTSVPKNFMELLTNQEAQQWVSGWRLNADSVLWGGHKVFMVKPEEPFQPVKEATQL [S169F]: the “area with substrate EALYFQS” value was 0.0682, the “area with substrate ECLYFQS” value was found to be 0.0752, the “area with substrate EDLYFQS” value was found to be 0.0904 and the “area with substrate EELYFQS” value turned out to be 0.0692. In addition, the “area with substrate EGLYFQS” value was determined as 0.049, the “area with substrate EILYFQS” value came to 0.0505, the “area with substrate ELLYFQS” value stood at 0.0681 and the “area with substrate EMLYFQS” value was found to be 0.0599. Moreover, the “area with substrate EPLYFQS” value stood at 0.0633, the “area with substrate EQLYFQS” value came out at 0.059, the “area with substrate ERLYFQS” value was 0.065 and the “area with substrate ESLYFQS” value worked out at 0.0771. The “area with substrate ETLYFQS” value was found to be 0.0767, the “area with substrate EWLYFQS” value is 0.0533 and the “area with substrate EYLYFQS” value was 0.0424.

Regarding MGESLFKGPRDYNPISSSICHLTNESDGHTTSLYGIGFGPFIITNKHLFRRNNGTLVVQSLHGVFKVKDTTTLQQHLVDGRDMIIIRMPKDFPPFPQKLKFREPQREERICLVTTNFQTKSMSSMVSDTSCTFPSGDGIFWKHWIQTKDGQCGSPLVSTRDGFIVGIHTASNFTNTNNYFTSVPKNFMELLTNQEAQQWVSGWRLNADSVLWGGHKVFMVKPEEPFQPVKEATQL [S169T], the “area with substrate EALYFQS” value was found to be 0.14, the “area with substrate ECLYFQS” value was determined as 0.108, the “area with substrate EDLYFQS” value was 0.156 and the “area with substrate EELYFQS” value amounted to 0.176. In addition, the “area with substrate EGLYFQS” value amounted to 0.101, the “area with substrate EHLYFQS” value was 0.147, the “area with substrate EILYFQS” value was found to be 0.109 and the “area with substrate EKLYFQS” value is 0.0905. Moreover, the “area with substrate ELLYFQS” value was found to be 0.11, the “area with substrate EMLYFQS” value worked out at 0.113, the “area with substrate EPLYFQS” value amounted to 0.145 and the “area with substrate EQLYFQS” value was 0.139. For the same variant, the “area with substrate ESLYFQS” value was 0.118, the “area with substrate ETLYFQS” value is 0.138, the “area with substrate EVLYFQS” value was 0.115 and the “area with substrate EWLYFQS” value came to 0.116. For the same variant, the “area with substrate EYLYFQS” value came to 0.136.

MGESLFKGPRDYNPISSSICHLTNESDGHTTSLYGIGFGPFIITNKHLFRRNNGTLVVQSLHGVFKVKDTTTLQQHLVDGRDMIIIRMPKDFPPFPQKLKFREPQREERICLVTTNFQTKSMSSMVSDTSCTFPSGDGIFWKHWIQTKDGQCGSPLASTRDGFIVGIHSASNFTNTNNYFTSVPKNFMELLTNQEAQQWVSGWRLNADSVLWGGHKVFMVKPEEPFQPVKEATQL [V157A]: the “area with substrate EALYFQS” value was 0.0548, the “area with substrate EDLYFQS” value came out at 0.104, the “area with substrate EFLYFQS” value worked out at 0.0895 and the “area with substrate EGLYFQS” value worked out at 0.0813. Moreover, the “area with substrate EHLYFQS” value amounted to 0.0821, the “area with substrate EKLYFQS” value came out at 0.068, the “area with substrate ELLYFQS” value was found to be 0.0925 and the “area with substrate EMLYFQS” value was 0.0871. Besides, the “area with substrate EQLYFQS” value turned out to be 0.129, the “area with substrate ESLYFQS” value was 0.134, the “area with substrate EVLYFQS” value was found to be 0.0928 and the “area with substrate EWLYFQS” value is 0.086. Further, the “area with substrate EYLYFQS” value is 0.0863.

On to MGESLFKGPRDYNPISSSICHLTNESDGHTTSLYGIGFGPFIITNKHLFRRNNGTLVVQSLHGVFKVKDTTTLQQHLVDGRDMIIIRMPKDFPPFPQKLKFREPQREERICLVTTNFQTKSMSSMVSDTSCTFPSGDGIFWKHWIQTKDGQCGSPLVSTRKGFIVGIHSASNFTNTNNYFTSVPKNFMELLTNQEAQQWVSGWRLNADSVLWGGHKVFMVKPEEPFQPVKEATQL [D161K], for which the “area with substrate EALYFQS” value is 0.0538, the “area with substrate ECLYFQS” value was found to be 0.0638, the “area with substrate EDLYFQS” value was 0.0812 and the “area with substrate EELYFQS” value stood at 0.0673. For the same variant, the “area with substrate EGLYFQS” value was 0.0488, the “area with substrate EHLYFQS” value was determined as 0.0621, the “area with substrate EILYFQS” value came out at 0.0581 and the “area with substrate EKLYFQS” value stood at 0.0646. In addition, the “area with substrate ELLYFQS” value is 0.0598, the “area with substrate EMLYFQS” value stood at 0.0578, the “area with substrate EPLYFQS” value was determined as 0.067 and the “area with substrate EQLYFQS” value was 0.0672. Besides, the “area with substrate ERLYFQS” value came out at 0.0693, the “area with substrate ESLYFQS” value was 0.0568, the “area with substrate ETLYFQS” value worked out at 0.0637 and the “area with substrate EVLYFQS” value stood at 0.0578. Besides, the “area with substrate EWLYFQS” value turned out to be 0.0755 and the “area with substrate EYLYFQS” value was found to be 0.0516.

Take MGESLFKGPRDYNPISSSICHLTNESDGHTTSLYGIGFGPFIITNKHLFRRNNGTLVVQSLHGVFKVKDTTTLQQHLVDGRDMIIIRMPKDFPPFPQKLKFREPQREERICLVTTNFQTKSMSSMVSDTSCTFPSGDGIFWKHWIQTKDGQCGSPLVSTRFGFIVGIHSASNFTNTNNYFTSVPKNFMELLTNQEAQQWVSGWRLNADSVLWGGHKVFMVKPEEPFQPVKEATQL [D161F]: the “area with substrate EALYFQS” value is 0.055, the “area with substrate ECLYFQS” value is 0.0542, the “area with substrate EDLYFQS” value was found to be 0.0486 and the “area with substrate EELYFQS” value worked out at 0.0397. The “area with substrate EHLYFQS” value is 0.0555, the “area with substrate EILYFQS” value is 0.0606, the “area with substrate EKLYFQS” value stood at 0.0617 and the “area with substrate EMLYFQS” value came out at 0.0527. Further, the “area with substrate EQLYFQS” value was determined as 0.0726, the “area with substrate ESLYFQS” value stood at 0.0602, the “area with substrate EVLYFQS” value was 0.0602 and the “area with substrate EWLYFQS” value was 0.0501. Further, the “area with substrate EYLYFQS” value stood at 0.0539.

With MGESLFKGPRDYNPISSSICHLTNESDGHTTSLYGIGFGPFIITNKHLFRRNNGTLVVQSLHGVFKVKDTTTLQQHLVDGRDMIIIRMPKDFPPFPQKLKFREPQREERICLVTTNFQTKSMSSMVSDTSCTFPSGDGIFWKHWIQTKDGQCGSPLVSTRCGFIVGIHSASNFTNTNNYFTSVPKNFMELLTNQEAQQWVSGWRLNADSVLWGGHKVFMVKPEEPFQPVKEATQL [D161C], the “area with substrate EALYFQS” value was determined as 0.0847, the “area with substrate ECLYFQS” value is 0.0759, the “area with substrate EELYFQS” value amounted to 0.0939 and the “area with substrate EGLYFQS” value was determined as 0.0746. In addition, the “area with substrate EHLYFQS” value turned out to be 0.0861, the “area with substrate EILYFQS” value was 0.0834, the “area with substrate EKLYFQS” value is 0.0889 and the “area with substrate ELLYFQS” value was 0.0681. Also, the “area with substrate EMLYFQS” value was 0.0753, the “area with substrate EPLYFQS” value was found to be 0.057, the “area with substrate EQLYFQS” value amounted to 0.0871 and the “area with substrate ERLYFQS” value came to 0.0784. Moreover, the “area with substrate ESLYFQS” value came to 0.0982, the “area with substrate EVLYFQS” value came to 0.0766, the “area with substrate EWLYFQS” value stood at 0.0893 and the “area with substrate EYLYFQS” value was determined as 0.0761.

MGESLFKGPRDYNPISSSICHLTNESDGHTTSLYGIGFGPFIITNKHLFRRNNGTLVVQSLHGVFKVKDTTTLQQHLVDGRDMIIIRMPKDFPPFPQKLKFREPQREERICLVTTNFQTKSMSSMVSDTSCTFPSGDGIFWKHWIQTKDGQCGSPLVSTRDGFIVGIHSASNDTNTNNYFTSVPKNFMELLTNQEAQQWVSGWRLNADSVLWGGHKVFMVKPEEPFQPVKEATQL [F173D]: the “area with substrate EALYFQS” value is 0.0603, the “area with substrate ECLYFQS” value stood at 0.0698, the “area with substrate EDLYFQS” value worked out at 0.0859 and the “area with substrate EELYFQS” value was found to be 0.0676. Moreover, the “area with substrate EGLYFQS” value was 0.0657, the “area with substrate EILYFQS” value was found to be 0.079, the “area with substrate EKLYFQS” value was determined as 0.0698 and the “area with substrate ELLYFQS” value came to 0.0594. The “area with substrate EMLYFQS” value was found to be 0.0646, the “area with substrate EPLYFQS” value came out at 0.0745, the “area with substrate EQLYFQS” value was 0.0871 and the “area with substrate ERLYFQS” value was determined as 0.0647. Besides, the “area with substrate ESLYFQS” value is 0.076, the “area with substrate ETLYFQS” value is 0.0702, the “area with substrate EVLYFQS” value is 0.0728 and the “area with substrate EWLYFQS” value was 0.0678. The “area with substrate EYLYFQS” value was 0.0923.

Regarding MGESLFKGPRDYNPISSSICHLTNESDGHTTSLYGIGFGPFIITNKHLFRRNNGTLVVQSLHGVFKVKDTTTLQQHLVDGRDMIIIRMPKDFPPFPQKLKFREPQREERICLVTTNFQTKSMSSMVSDTSCTFPSGDGIFWKHWIQTKDGQCGSPLVSTRDGFIVGIHSASNATNTNNYFTSVPKNFMELLTNQEAQQWVSGWRLNADSVLWGGHKVFMVKPEEPFQPVKEATQL [F173A], the “area with substrate EALYFQS” value is 0.079, the “area with substrate ECLYFQS” value came out at 0.0859, the “area with substrate EDLYFQS” value was found to be 0.117 and the “area with substrate EELYFQS” value came out at 0.0973. Moreover, the “area with substrate EHLYFQS” value came to 0.0916, the “area with substrate EILYFQS” value was found to be 0.0875, the “area with substrate EKLYFQS” value stood at 0.0722 and the “area with substrate EMLYFQS” value stood at 0.0849. Besides, the “area with substrate EPLYFQS” value was 0.0995, the “area with substrate EQLYFQS” value stood at 0.102, the “area with substrate ERLYFQS” value is 0.0759 and the “area with substrate ESLYFQS” value stood at 0.0767. Besides, the “area with substrate EWLYFQS” value was 0.0773 and the “area with substrate EYLYFQS” value was 0.0643.
